Experimental data published in PubChem BioAssay AID1508642 (National Center for Advancing Translational Sciences (NCATS), 2021).
The campaign covered roughly 43,000 compounds. About 200 (0.47%) were called active. Roughly 12% stayed inconclusive and do not appear here. Calls come from the whole dose curve; as a rule, active = well fitted cell-killing curve with a large enough effect; inconclusive = small, poorly fitted or top-dose-only effect, or effect the other way; inactive = flat fitted curve, though single readings scatter. The list shows a part of the results.

Test: Cell viability qHTS assay in S16 Pmp22-F2sN cells; note: nearly all actives have a fitted effect of over 65% in size
Details: S16 Pmp22-F2sN Schwann cells viability, CellTiter-Glo, 24 h; series mostly up to 57.5 µM; activity change, negative = cytotoxicity: at the top concentration
Summary of the method: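 Viability was measured by CellTiter-Glo luminescence (15 min, room temperature). This followed 24 h at 37 °C of compound exposure (23 nL pin transfer) in S16 Pmp22-F2sN Schwann cells, 500-1,000 per well.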
% is set by controls: 0 for no effect and ±100 for the full control effect.

SMILES	activity change, negative = cytotoxicity
CC1CCN(c2ccc(-c3nc(-c4ccccc4)no3)cc2[N+](=O)[O-])CC1	inactive: 8%
CCOC(=O)c1c(C)[nH]c(C)c1S(=O)(=O)N(C)CC(=O)NCc1cccc(Br)c1	inactive: -9.11%
COc1ccc(NC(=O)NCCn2nnc3cc(S(=O)(=O)N(C)C)ccc32)cc1	inactive: -24%
Cc1ccc2c(CNC3CCCC3)c(C(=O)O)n(Cc3ccc(F)cc3)c2c1	inactive: 16.2%
CN(C(=O)CSc1nc2ccccc2n1CC(=O)N(C)C1CCCCC1)c1ccccc1	inactive: 7.73%
CCOC(=O)C1CCCN(C(=O)c2ccc3c(c2)N(Cc2ccc(Cl)cc2)C(=O)c2ccccc2S3=O)C1 (configuration not stated)	inactive: 21.4%
Cc1noc(/C=C/c2ccccc2F)c1S(=O)(=O)N1CCC(C(=O)Nc2ccc(C#N)cc2)CC1	inactive: -4.45%
CCCCNC(=O)CCn1c(=O)c2ccccc2n(Cc2cccc(Cl)c2)c1=O	inactive: 18.7%
Cc1cccc(NC(=O)CN2C(=O)CCn3nc(-c4cccn4C)cc32)c1C	inactive: -7.63%
COc1ccc(NC(=O)C2CCN(S(=O)(=O)c3cc(-c4noc(C)n4)ccc3C)CC2)cc1	inactive: -4.93%
Cc1ccc(C)c(NC(=O)c2cc(S(=O)(=O)NCCc3ccccc3)ccc2F)c1	inactive: -18.5%
Cc1ccc(OCC(=O)Nc2nnc(SCc3cc(=O)c4ccccc4[nH]3)s2)cc1C	inactive: 9.08%
COc1ccccc1C(=O)n1nc(-c2cccnc2)nc1NCc1ccccc1	inactive: 1.49%
Cc1ccc(Cl)cc1NC(=O)c1ccc(NC(=O)N2CCSc3ncccc32)cc1	inactive: -19.3%
Cc1cccc(-c2nc3c4ccccc4nc(N4CCN(c5ccc(F)cc5)CC4)n3n2)c1	inactive: 13%
O=C(CCCc1ccccc1)NC1CC(=O)N(c2ccc(Cl)cc2)C1 (configuration not stated)	inactive: -5.43%
CC1=C(c2ccc(C(C)C)cc2)S(=O)(=O)N=C1N1CCN(c2ccc(F)cc2)CC1	inactive: -5.5%
CC1=Nc2cc(C(=O)NC3CCCCC3)ccc2Sc2ccc(Cl)cc21	inactive: -5.86%
COc1ccc(NC(=O)c2coc(=O)c3ccccc23)cc1OC	inactive: -12.3%
CCc1ccccc1NC(=O)Cn1nnc(-c2nc(-c3ccncc3)no2)c1N	inactive: 1.25%
COc1cc(NS(=O)(=O)c2ccc3c(c2)CC(=O)N3)cc(OC)c1OC	inactive: -17.1%
Cc1ccc(NC(=O)C2CCN(S(=O)(=O)c3ccc4c(c3)CCCC(=O)N4)CC2)c(Cl)c1	inactive: -2.97%
COc1ccccc1NC(=O)CSC1=Nc2ccccc2C2=NC(CC(=O)NCCc3ccccc3)C(=O)N12 (configuration not stated)	inactive: -3.44%
CCOc1ccc(Nc2c(S(=O)(=O)c3ccc(C)cc3)cnc3cc(OC)c(OC)cc23)cc1	inactive: -22.9%

SMILES	activity change, negative = cytotoxicity
COc1ccc(CCNC(=O)c2ccc3c(c2)sc2nc(-c4ccc(C)cc4)cn23)cc1OC	inactive: 12.6%
CCCCC(=O)Nc1ccc2nc(SCC(=O)N3CCOCC3)sc2c1	inactive: -3.62%
CCOc1ccc(NC(=O)CN2CCN(CC(=O)Nc3ccc(N(CC)CC)cc3)CC2)cc1	inactive: -5.86%
COc1cc(NS(=O)(=O)c2ccc3[nH]c(=O)[nH]c3c2)cc(OC)c1	inactive: 4.18%
COc1cccc2c1Oc1ncccc1N(c1ccc(C(=O)NCc3ccccc3C)s1)C2	inactive: -21.8%
Cc1ccc(NC(=O)c2c(C)oc3ncn(C)c(=O)c23)cc1F	inactive: 1.81%
O=C(NCc1ccccc1Cl)c1ccc2c(c1)nnn2C1CCCC1	inactive: -10.5%
O=C(NC1(C(F)(F)F)C(=O)Nc2c1c(=O)[nH]c(=O)n2CCc1ccccc1)c1ccc(Cl)cc1 (configuration not stated)	inactive: 0.999%
CCOc1ccc(NC(=O)c2cc(=O)c3cc(CC)ccc3o2)cc1	inactive: 5.8%
Cc1ccc(-c2noc(-c3ccccc3NC(=O)C3CC(=O)N(c4cccc(C)c4)C3)n2)cc1 (configuration not stated)	inactive: 7.83%
CCc1ccc(C2=C(C)C(N3CCC(C(=O)Nc4cccc(OC)c4)CC3)=NS2(=O)=O)cc1	inactive: -0.122%
CCOc1ccc(NC(=O)CSc2nc(-c3cccs3)cc(C(F)(F)F)c2C#N)cc1	inactive: 5.85%
Oc1ccc(/C=C/c2nc(-c3ccccc3O)n(-c3ccccc3)n2)c(O)c1	inactive: -18.4%
CCCCCNC(=O)c1cc2c(=O)n3ccccc3nc2n1C	inactive: 20.1%
Clc1cccc(-n2ncc3c(NCCc4ccccc4)ncnc32)c1	inactive: -2.72%
CCCOc1ccc(C2C(=O)N(C3CCCCC3)CC(=O)N2CCc2ccccc2)cc1OC (configuration not stated)	inactive: -18.9%
CN(C)C(=O)c1ccc(NC(=O)Cn2nc(-c3ccccc3)c3ccccc3c2=O)cc1	inactive: -4.92%
COc1cccc(CN2CCc3nc(Nc4ccc5c(c4)OCCO5)ncc3C2)c1OC	inactive: -2.47%
CC(=O)Nc1ccc(OCc2cc(=O)n3ccccc3n2)cc1	inactive: -1.1%
COc1ccccc1N1CCN(C(CNC(=O)C(=O)NCCN(C)C)c2cccnc2)CC1 (configuration not stated)	inactive: 3.17%
CCOC(=O)c1c(NC(=O)COc2cc(C)ccc2C(C)C)sc2c1CCCC2	inactive: -2.76%
CCCCNC(=O)C(CC)Sc1nnc(-c2ccc(F)cc2)c(-c2ccc(F)cc2)n1 (configuration not stated)	inactive: -16.7%
Cc1cccc(NC(=O)c2c(NC(=O)c3cccs3)sc3c2CCC(C)C3)c1 (configuration not stated)	inactive: 1.92%
